Experimental data reported in PubChem BioAssay AID894 (National Center for Advancing Translational Sciences (NCATS), 2007).
The campaign covered roughly 150,000 compounds. About 6,500 (4.3%) were called active. Inconclusive means that the source gave no clear call. Such entries were picked first, then a sample of the others. Calls follow the shape of the dose curve; as a rule, active = well fitted inhibition curve with a large enough effect (not every such curve was filed as active); inconclusive = small, poorly fitted or top-dose-only effect, or another doubt; inactive = no such curve, though single readings can be large or run the other way. Potencies of inconclusive entries are left out as doubtful fits.

What follows are compounds tested against 15-hydroxyprostaglandin dehydrogenase [NAD(+)] (Homo sapiens) (UniProt P15428) (assay: qHTS Assay for Inhibitors of HPGD (15-Hydroxyprostaglandin Dehydrogenase)). Details: purified HPGD, NADH fluorescence kinetic, PGE2 substrate; activity change, negative = inhibition: active compounds read low.
Sequence of UniProt P15428 (P15428 whole entry, looked up): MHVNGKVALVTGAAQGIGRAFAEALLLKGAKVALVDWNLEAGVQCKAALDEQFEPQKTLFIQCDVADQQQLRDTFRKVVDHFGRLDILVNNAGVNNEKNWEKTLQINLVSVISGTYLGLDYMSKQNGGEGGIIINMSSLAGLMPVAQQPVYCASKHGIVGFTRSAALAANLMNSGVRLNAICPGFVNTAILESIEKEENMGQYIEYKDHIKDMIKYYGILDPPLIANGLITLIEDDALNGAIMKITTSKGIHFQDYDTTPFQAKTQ
Procedure, shortened: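 20 nM HPGD preincubated 15 min at room temperature with compound in 50 mM Tris-HCl pH 8, 0.01% Tween 20. Started with 1 mM NAD+ and 30 uM prostaglandin E2; NADH fluorescence (360/450 nm) read 5 times over 30-s intervals, last minus first.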
% is scaled to controls: 0 for no effect and ±100 for the full control effect; potency is read from the fitted curve at half-maximal effect; tags tell the direction and shape of the fitted curve.

SMILES	Potency	activity change, negative = inhibition
Cc1ccc(C)c(Cn2nnc3c(=O)[nH]c(C(=O)NCc4ccco4)nc32)c1	active: 0.562 µM	
CCc1nc2c(C#N)c(-c3ccc(Cl)cc3)ccn2n1	inconclusive [inhibitor, partial curve]	
O=C(NCc1ccccn1)C1C2C=CC(C2)C1C(=O)Nc1ccc(F)cc1 (centres undefined)	active: 15.8 µM	
CCOC(=O)CSc1nc2c(c(-c3ccc(C)o3)c1C#N)CCCC2	inconclusive [inhibitor, single point]	
CC1(C)CC(=O)C(C(C#Cc2ccccc2)C2=C(O)CC(C)(C)CC2=O)=C(O)C1	active: 7.94 µM	
COCCNC(=O)CSC1=N/C(=C/c2ccc(Cl)c(Cl)c2)C(=O)N1c1ccccc1F	inconclusive [inhibitor, partial curve]	
CC(C)c1cc(C(=O)Nc2sc3c(c2C#N)CCC3)no1	inconclusive [inhibitor, single point]	
CC(C)Cn1c(N)c(C(=O)CSc2cc(Cl)ccc2Cl)c(=O)n(C)c1=O		inactive: -4.92%
Cc1ccc(N/C=C/C(=O)C(C)(C)C)c(O)c1		inactive: -29.6%
COc1ccc(C(=O)NCCSCc2ccccc2C)cc1		inactive: -11.8%
COC(=O)C1=C(C)N(C)C(C)=C(C(=O)OC)C1c1ccc(Cl)cc1	inconclusive [inhibitor, single point]	
Cc1ccc(S(=O)(=O)C2(C(=O)N3CCCCCC3)CC2)cc1	active: 12.6 µM	
O=C(CSCc1cnn(-c2ccccc2)c1-n1cccc1)NCc1cccs1	inconclusive [inhibitor, partial curve]	
COc1cccc(-n2c(SCC(=O)Nc3cc(C)on3)nc3c([nH]c4ccccc43)c2=O)c1	inconclusive [inhibitor, single point]	
Cc1ccc(-c2cc3nc(-c4ccc(Br)cc4)cc(N)n3n2)cc1	inconclusive [inhibitor, partial curve]	
CCOc1cccc(C(=O)Nc2nccs2)c1	inconclusive [inhibitor, partial curve, poor fit]	
O=C(OC1Cc2c(O)cc(O)cc2OC1c1cc(O)c(O)c(O)c1-c1c(C2Oc3cc(O)cc(O)c3CC2OC(=O)c2cc(O)c(O)c(O)c2)cc(O)c(O)c1O)c1cc(O)c(O)c(O)c1 (centres undefined)	active: 22.4 µM	
Cc1ccc(C)c(N(C(=O)Cc2cccs2)C(C(=O)NC2CCCC2)c2ccc(C)o2)c1 (centres undefined)		inactive: -4.37%
CC[n+]1c(C)sc2c(C)cc(C)cc21		inactive: -0.772%
COc1cccc(-c2ncc3ccccn23)c1	inconclusive [inhibitor, partial curve]	
c1ccc(-c2csc(NNC3=NCCCCC3)n2)cc1	inconclusive [inhibitor, partial curve]	
O=C(c1ccco1)N1CCN(CC(=O)N2c3ccccc3CCc3ccccc32)CC1		inactive: -6.5%
c1ccc(-c2nc3ccccc3o2)nc1	inconclusive [inhibitor, partial curve]	
N#Cc1cc2c(nc1SCc1cccnc1)CCCCC2	inconclusive [inhibitor, partial curve]	
CCOC(=O)N1CCC(NC(=O)c2cc3cc4cc(OC)ccc4nc3o2)CC1	inconclusive [inhibitor, partial curve]	

SMILES	Potency	activity change, negative = inhibition
O=C(Cc1cn2ccsc2n1)Nc1nc2c(s1)CN(Cc1ccccc1)CC2		inactive: -9.11%
CCCCN1C(=O)c2ccc(C(=O)NCCN3C(=O)S/C(=C\c4cccnc4)C3=O)cc2C1=O		inactive: -16.4%
CCOC(=O)c1sc(C)c2c1NC(C)(c1ccccc1)NC2=O (centres undefined)	inconclusive [inhibitor, single point]	
O=C(O)COc1ccc(C(=O)Cc2ccc3c(c2)OCCCO3)c(O)c1	inconclusive [inhibitor, partial curve]	
CC(C)CCNC(=O)COc1ccc2c3c(c(=O)oc2c1)CCC3	inconclusive [inhibitor, partial curve]	
COc1ccc(-c2nn(CCC(=O)O)cc2/C=C/C(=O)O)cc1[N+](=O)[O-]		inactive: -25%
CCOc1nc2cccc(C(=O)OC(C)OC(=O)OC3CCCCC3)c2n1Cc1ccc(-c2ccccc2-c2nn[nH]n2)cc1 (centres undefined)	inconclusive [inhibitor, partial curve]	
COc1ccc(C(=O)Nc2sc3c(c2C(=O)NCc2ccco2)CCCC3)cc1OC	inconclusive [inhibitor, partial curve]	
CN(C)c1oc(-c2ccccc2)nc1C#N	inconclusive [inhibitor, partial curve]	
O=C(Nc1ccc(-n2nncc2-c2ccco2)cc1)c1cc2ccccc2oc1=O		inactive: -17.9%
CN1CCc2nc(NC(=O)c3cccc(OC(F)F)c3)sc2C1		inactive: -8.22%
Cc1ccc2[nH]c(-c3ccccc3)c(CN(C)C)c(=O)c2c1	inconclusive [inhibitor, full curve]	
COc1cccc(CN2CCN(c3cccc(C(F)(F)F)c3)CC2)c1OC		inactive: -10.6%
N=c1oc2ccccc2cc1-c1nc2ccccc2c(=O)[nH]1		inactive: -14.5%
CCOc1c2ccc(C(=O)NCCc3ccc(C)cc3)cc2nn1CC	inconclusive [inhibitor, partial curve]	
CCOc1cc(/C=N/O)cc(Br)c1OC		inactive: -21.3%
Cc1ccc(Sc2c(C)nn(C(=O)c3cccc(S(=O)(=O)N4CCOCC4)c3)c2C)cc1	inconclusive [inhibitor, single point]	
CCN1CCN(CCNC(=O)CCCCCn2c(=O)[nH]c3cc(C(=O)OC)ccc3c2=O)CC1	inconclusive [inhibitor, single point]	
COc1ccc(NC(=O)c2cc3c(s2)CCC(C)C3)cc1S(=O)(=O)N1CCOCC1 (centres undefined)		inactive: -12.3%
Cc1ccc(/C=N/NC(=O)CSc2nnc(-c3ccc(Cl)cc3)n2-c2ccccc2)o1	inconclusive [inhibitor, single point]	
COC(=O)CSC1=NS(=O)(=O)c2ccccc21	active: 22.4 µM	
N#Cc1nn(-c2ccccc2)nc1N1CCCCC1	inconclusive [inhibitor, partial curve]	
NC(=O)COC(=O)c1ccccc1Nc1ccc(SC(F)F)cc1	active: 11.2 µM	
COc1ccc(-c2cc(-c3nnc(-c4ccncc4)o3)c3ccccc3n2)cc1	inconclusive [inhibitor, partial curve]	
CCOC(=O)c1cnn(-c2nc(-c3ccc(C)cc3)cs2)c1C(F)(F)F	inconclusive [inhibitor, partial curve]	

SMILES	Potency	activity change, negative = inhibition
O=C(CCS(=O)(=O)c1ccc(Cl)cc1)OCC(=O)N1CCCCC1		inactive: -0.761%
COc1ccc2c(c1)O[C@@H](c1ccc3c(c1)OCO3)[C@H](OC(=O)NS(=O)(=O)c1ccc(F)cc1)C2=O		inactive: -12.6%
Cc1ccc(S(=O)(=O)NCc2ccc(C(=O)N3CCCC3)cc2)cc1	active: 20 µM	
CC(C)OCC(O)CS(=O)(=O)Cc1ccccc1 (centres undefined)	active: 12.6 µM	
CCCCCCCCCCCCC(C(=O)O)C(C)C(=O)O (centres undefined)		inactive: -18.8%
O=C(OCc1cc2ccccc2[nH]c1=O)c1ccco1		inactive: -21.5%
O=C(Cc1coc(-c2ccc(F)cc2)n1)N1CCOCC1		inactive: -5.59%
Cc1cc(-c2ccco2)n(-c2ccccc2)n1	active: 31.6 µM	
CCOC(=O)c1ccc(NS(=O)(=O)CC)cc1	active: 14.1 µM	
CCCn1c(O)c(N=Nc2ccc3ccccc3n2)c2ccccc21		inactive: -6.03%
N#Cc1c(-c2ccccc2)cc(C2CC2)nc1SCC(=O)O	inconclusive [inhibitor, partial curve]	
O=C(Cc1cccc2ccccc12)Nc1ccc(-c2cc3ccccc3oc2=O)cc1	inconclusive [inhibitor, partial curve]	
CCOc1ccccc1Nc1cc(C)nc2nc(C)nn12	active: 1.58 µM	
Cc1ccc(CNC(=O)COc2ccc(C(=O)c3ccc(F)cc3)cc2)cc1	active: 39.8 µM	
O=c1cc(O)cc(/C=C/c2ccc(O)c(O)c2)o1	inconclusive [inhibitor, partial curve]	
Cc1ccc2c(c1)c1c(n2CC(O)Cn2c(C)nc3ccccc32)/C(=N\O)CCC1 (centres undefined)	inconclusive [inhibitor, partial curve]	
CCn1c2ccccc2c2cc(/C=N/NC(=O)c3cccc(C)c3)ccc21	inconclusive [inhibitor, partial curve]	
O=C(CSc1ccc(Cl)cc1)Nc1ccc(NC(=O)c2ccco2)cc1	inconclusive [inhibitor, partial curve]	
CC(=O)Nc1ccc(-c2nc3c(C)cccc3[nH]2)cc1	inconclusive [inhibitor, partial curve]	
Brc1ccc2ncnc(NCc3ccccc3)c2c1		inactive: -28.8%
c1ccc(CCc2nn3c(Cc4ccccc4)nnc3s2)cc1	active: 11.2 µM	
O=C(NCCN1CCOCC1)c1cc2sccc2n1Cc1ccc(F)cc1	active: 25.1 µM	
Cc1nc(SCC(=O)c2ccc(Cl)s2)c2oc3ccccc3c2n1	active: 2.24 µM	
O=C(NCCOc1nc(N2CCOCC2)nc(N2CCOCC2)n1)Nc1ccccc1		inactive: -7.66%
